{"source": "paper PMC4336329", "about": "(PLoS ONE, 2015)", "note": "The campaign covered roughly 310,000 compounds. About 14,000 (4.5%) showed an effect of 50% or more. Effects have a minus sign here. This is one part of the list.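 Note: peak tail current of the secondary pulse compared with the same well before compound.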", "data": [{"target": "human ether-à-go-go-related gene (hERG) potassium channel (human, UniProt Q12809)", "sequence (Q12809 whole entry, looked up)": "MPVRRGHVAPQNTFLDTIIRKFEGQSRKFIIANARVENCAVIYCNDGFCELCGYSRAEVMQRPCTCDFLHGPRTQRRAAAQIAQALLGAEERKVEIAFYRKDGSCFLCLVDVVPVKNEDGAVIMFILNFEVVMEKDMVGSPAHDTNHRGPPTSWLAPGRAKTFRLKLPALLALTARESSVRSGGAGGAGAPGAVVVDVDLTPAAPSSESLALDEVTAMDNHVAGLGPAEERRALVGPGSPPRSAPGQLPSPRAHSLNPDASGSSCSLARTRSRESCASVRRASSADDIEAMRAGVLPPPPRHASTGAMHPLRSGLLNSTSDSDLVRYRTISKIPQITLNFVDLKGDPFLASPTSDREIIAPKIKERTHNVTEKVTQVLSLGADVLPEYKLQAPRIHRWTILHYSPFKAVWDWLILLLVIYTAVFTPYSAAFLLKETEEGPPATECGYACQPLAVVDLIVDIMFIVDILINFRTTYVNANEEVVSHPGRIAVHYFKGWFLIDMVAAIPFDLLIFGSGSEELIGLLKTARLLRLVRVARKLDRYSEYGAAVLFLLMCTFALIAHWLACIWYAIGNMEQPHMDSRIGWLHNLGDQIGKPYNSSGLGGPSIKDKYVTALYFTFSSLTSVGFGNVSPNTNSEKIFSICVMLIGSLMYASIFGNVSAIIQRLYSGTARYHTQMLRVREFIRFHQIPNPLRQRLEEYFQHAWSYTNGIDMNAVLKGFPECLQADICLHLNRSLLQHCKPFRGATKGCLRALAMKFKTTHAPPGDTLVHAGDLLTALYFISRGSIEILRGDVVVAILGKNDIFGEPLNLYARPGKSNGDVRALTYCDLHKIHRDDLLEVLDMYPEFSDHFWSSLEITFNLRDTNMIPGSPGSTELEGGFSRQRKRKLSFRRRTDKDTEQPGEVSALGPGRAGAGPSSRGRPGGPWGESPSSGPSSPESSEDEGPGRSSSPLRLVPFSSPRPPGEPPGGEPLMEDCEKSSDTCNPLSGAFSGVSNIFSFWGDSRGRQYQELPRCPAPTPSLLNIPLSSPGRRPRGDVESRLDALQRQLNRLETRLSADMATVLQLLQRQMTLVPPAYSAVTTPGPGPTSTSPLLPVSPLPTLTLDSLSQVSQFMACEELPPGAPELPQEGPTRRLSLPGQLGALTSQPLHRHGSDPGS", "test": "primary screen, population patch clamp on CHO cells stably expressing hERG", "units": {"hERG current change (%, negative = inhibition) at 10uM": "%"}, "values": [{"smiles": "Cc1cccc(NP(=O)(Oc2ccccc2F)Oc2ccccc2F)c1C", "hERG current change (%, negative = inhibition) at 10uM": 10.3}, {"smiles": "CC(C)c1ccc(-n2cccc2/C=C2/C(=N)N3C=CSC3=NC2=O)cc1", "hERG current change (%, negative = inhibition) at 10uM": 14.7}, {"smiles": "CCOC(=O)c1c(-c2ccccc2)csc1NC(=O)CSc1nc(C)cc(C)n1", "hERG current change (%, negative = inhibition) at 10uM": 2.56}, {"smiles": "O=c1c2ccccc2nc(SCc2ccccc2)n1CC1CCCO1", "note": "(stereo not drawn)", "hERG current change (%, negative = inhibition) at 10uM": -6.67}, {"smiles": "COCCOC(=O)c1c(C)oc2ccc(NS(=O)(=O)c3ccccc3)cc12", "hERG current change (%, negative = inhibition) at 10uM": -22.1}, {"smiles": "Cc1ccccc1N1CN(Cc2ccco2)CNC1=S", "hERG current change (%, negative = inhibition) at 10uM": -42.1}, {"smiles": "COc1ccc2nc(SCC(=O)NCc3ccc(F)cc3)[nH]c2c1", "hERG current change (%, negative = inhibition) at 10uM": -9.3}, {"smiles": "CCN(CCCNC(=O)CCC(=O)N1CCOc2ccccc21)Cc1ccccc1", "hERG current change (%, negative = inhibition) at 10uM": -62.5}, {"smiles": "COc1ccc([C@H]2CC(=O)C=C(c3ccc(C)c(F)c3)C2)cc1", "hERG current change (%, negative = inhibition) at 10uM": -11.9}, {"smiles": "CCc1ccc(NC(=O)CCNC(=O)N2C[C@H]3C[C@@H](C2)c2cccc(=O)n2C3)cc1", "hERG current change (%, negative = inhibition) at 10uM": 0.553}, {"smiles": "Cc1cc(C(C)(C)C)cc(C)c1Cn1c2[n+](c3ccc(C(F)(F)F)cc31)CCCCC2.[Cl-]", "hERG current change (%, negative = inhibition) at 10uM": -55.4}, {"smiles": "CC(C)CC(=O)NNC(=S)NCc1ccco1", "hERG current change (%, negative = inhibition) at 10uM": 16.9}, {"smiles": "COc1ccc(CNC(=O)CN(CC2CCCO2)C(=O)CNS(=O)(=O)c2ccccc2)cc1", "note": "(stereo not drawn)", "hERG current change (%, negative = inhibition) at 10uM": -9.24}, {"smiles": "CSc1n[nH]c2nc3c(c(=O)n12)C1(CCCC1)Cc1ccccc1-3", "hERG current change (%, negative = inhibition) at 10uM": 1.38}, {"smiles": "O=C(OCC(=O)N1CCCC1)c1cc2c(cc1[N+](=O)[O-])OCCO2", "hERG current change (%, negative = inhibition) at 10uM": -6.74}, {"smiles": "CC1CN(C(=O)COC(=O)c2cc(S(N)(=O)=O)c(Cl)cc2Cl)CC(C)O1", "note": "(stereo not drawn)", "hERG current change (%, negative = inhibition) at 10uM": 1.12}, {"smiles": "O=C(COC(=O)CC(NC(=O)c1ccccc1Cl)c1ccccc1)Nc1cccc(F)c1", "note": "(stereo not drawn)", "hERG current change (%, negative = inhibition) at 10uM": -26.6}, {"smiles": "CCOc1ccc(NC(=O)N(CCC(C)C)C(C)c2ccco2)cc1", "note": "(stereo not drawn)", "hERG current change (%, negative = inhibition) at 10uM": -5.24}, {"smiles": "COc1ccc(C(=O)C2CCCN(C(=O)C3=CCCC3)C2)cc1OC", "note": "(stereo not drawn)", "hERG current change (%, negative = inhibition) at 10uM": -3.88}, {"smiles": "COc1cc(/C=N/n2c(COc3ccccc3)n[nH]c2=S)cc(OC)c1OC(C)=O", "hERG current change (%, negative = inhibition) at 10uM": 18.6}, {"smiles": "CC1(C)CC(=O)C2=C(C1)N(c1ccc(F)cc1)C(=O)C2(NC(=O)c1ccccc1F)C(F)(F)F", "note": "(stereo not drawn)", "hERG current change (%, negative = inhibition) at 10uM": -6.31}, {"smiles": "CCCCC(=O)Nc1cc(C)c(NC(=O)c2cccs2)cn1", "hERG current change (%, negative = inhibition) at 10uM": 4.48}, {"smiles": "Cc1cccc(NCC(=O)c2c(N)n(C)c(=O)n(C)c2=O)c1C", "hERG current change (%, negative = inhibition) at 10uM": 24.5}, {"smiles": "CCN(CC)S(=O)(=O)c1cccc(C(=O)NNC(=O)C2=NN(c3ccccc3)C(=O)CC2)c1", "hERG current change (%, negative = inhibition) at 10uM": -4.47}, {"smiles": "NC(=O)c1ccccc1NC(=O)CS(=O)(=O)Cc1ccccc1", "hERG current change (%, negative = inhibition) at 10uM": 6.17}, {"smiles": "Cc1ccc(C2N(c3cccc(Cl)c3)C(=O)C3CCCN32)o1", "note": "(stereo not drawn)", "hERG current change (%, negative = inhibition) at 10uM": -5.93}, {"smiles": "CCOC(=O)c1c(C)[nH]c(C(=O)N/N=C/c2ccc(Br)cc2)c1C", "hERG current change (%, negative = inhibition) at 10uM": 3.14}, {"smiles": "O=C(Cc1ccccc1Cl)Nc1cccnc1", "hERG current change (%, negative = inhibition) at 10uM": 8.13}, {"smiles": "O=C1CC(N2CCN(c3ccc(O)cc3)CC2)C(=O)N1Cc1cccs1", "note": "(stereo not drawn)", "hERG current change (%, negative = inhibition) at 10uM": -7.15}, {"smiles": "CC(C)Cc1cc(C(=O)N2CCCC(CO)(Cc3ccc(F)cc3F)C2)n[nH]1", "note": "(stereo not drawn)", "hERG current change (%, negative = inhibition) at 10uM": -7.82}, {"smiles": "O=C(CCC(=O)Nc1ccccc1Cl)NNC(=O)COc1ccc([N+](=O)[O-])cc1", "hERG current change (%, negative = inhibition) at 10uM": -17.5}, {"smiles": "CCCn1c(SCC(=O)NCc2ccco2)nnc1C(C)C", "hERG current change (%, negative = inhibition) at 10uM": 11.8}, {"smiles": "Cc1ccc(NC(=O)COc2ccc(/C=N\\NC(=O)c3cccnc3)cc2)cc1C", "hERG current change (%, negative = inhibition) at 10uM": 3.64}, {"smiles": "Cl.OC(COCc1cccs1)CN1CCCCCC1", "note": "(stereo not drawn)", "hERG current change (%, negative = inhibition) at 10uM": -21.9}, {"smiles": "CCN(CC)C(=S)NC(=O)C12CC3CC(CC(C3)C1)C2", "hERG current change (%, negative = inhibition) at 10uM": 12.7}, {"smiles": "CCOC(=O)C1CCN(C(=O)CCS(=O)(=O)Cc2ccccc2)CC1", "hERG current change (%, negative = inhibition) at 10uM": 9.65}, {"smiles": "C=CCNC(=O)CN(Cc1ccccc1)S(=O)(=O)c1ccc(C)cc1", "hERG current change (%, negative = inhibition) at 10uM": -10.7}, {"smiles": "COC(=O)c1ccc(CSc2ncnc3c2sc2nc(N4CCOCC4)c4c(c23)CCCC4)o1", "hERG current change (%, negative = inhibition) at 10uM": 5.71}, {"smiles": "CN(C(=O)CN1C(=O)c2cc(Cl)c(Cl)cc2C1=O)C1CCS(=O)(=O)C1", "note": "(stereo not drawn)", "hERG current change (%, negative = inhibition) at 10uM": -32.5}, {"smiles": "CC(C)N1CC=C2C(C#N)=C(N)C(C#N)(C#N)[C@H](c3ccoc3)[C@H]2C1", "hERG current change (%, negative = inhibition) at 10uM": -17.3}, {"smiles": "CCC1=Nc2ccccc2-c2nnc(SC)nc2O1", "hERG current change (%, negative = inhibition) at 10uM": -32.8}, {"smiles": "Cc1ccc(CNS(=O)(=O)c2cc3c4c(c2)CCN4C(=O)CC3)cc1", "hERG current change (%, negative = inhibition) at 10uM": -29.4}]}]}
